# About 540 (0.36%) of roughly 150,000 compounds showed an effect of 50% or more. Some of the results follow.
# System: Plasmodium falciparum
# Test: Primary screen in NF54 nanoGlo assay, in single point, at 2uM, 72h; a lower Z score goes with more inhibition
# Format: functional, Erythrocyte
# Settings: timepoint 72 hour
Compound,% Inhibition [%],Z score
CC(C)(C)OC(=O)N1CCC[C@H]1CCC(=O)NC1CC=CC1,-1,0.12
COc1nn(C)cc1C(=O)N1CCC[C@H](Oc2cc(C)nc(C)n2)C1,19,-2.56
Cc1ccn2c(F)c(-c3ncnn3C(C)(C)C)nc2c1,-9,1.36
Cc1ccc(NC(=O)Cn2ccn3nc4c(c3c2=O)CCCCC4)cc1,6,-0.83
Cn1c(CCNC(=O)[C@H](O)C2CCCCC2)n[nH]c1=O,-11,1.92
CCC[C@H](NC(=O)c1ccccc1)C(=O)O,-9,0.85
Cc1nc2cc(NC(=O)C(C)C)cc(C(=O)NCCN3CCNC3=O)c2n1Cc1ccccc1,7,-0.76
Cc1ccc(C2=NC3(CCCC3)NC2=O)cc1,32,-4.13
CCc1nnc([C@@H]2CN(Cc3cc(F)c(F)cc3F)CCO2)o1,2,-0.27
CCN(Cc1cnn(C(C)C)c1)C(=O)Cn1nnnc1N,-4,0.68
CCN(Cc1cnn(CC)c1)C(=O)c1cccc(-c2ncccc2F)c1,-7,1.31
NC(=O)c1cccc(/C=C/C2CCCCC2)n1,-10,1.58
O=C(CCc1nnc[nH]1)NC[C@H]1CCCN1Cc1ccccc1,-14,1.95
Cc1c[nH]c(CNC[C@]2(C)CC[C@H](C)C2(C)C)n1,12,-2.09
CCn1cc(CN(C)C(=O)CCCn2cccn2)cn1,-2,0.31
Cc1cccc(-c2noc(N3CCOCC3)c2CN(Cc2ccc(F)cc2)C(=O)c2ccc(F)cc2)c1,12,-1.48
O=c1c2nccnc2ccn1CCOCC(F)(F)C(F)F,-2,0.28
Cc1ccccc1Oc1ccc(N2C(=O)C3C4c5ccccc5C(c5ccccc54)C3(C)C2=O)cc1 (stereo unspecified),0,0.06
Cc1cc(NC(=O)c2nc(-c3ccccc3)n(-c3ccccc3)n2)[nH]n1,-4,0.67
Cc1nc(-c2ccc([C@H](C)N(C)C)cc2)nn1C,6,-1.13
CCc1nc([C@@H]2CCCN2Cc2cn3c(C)cc(C)nc3n2)no1,-3,0.48
O=C(CCc1cc2n(n1)CCN(C1CCCCC1)C2)NCCO,-10,1.27

Compound,% Inhibition [%],Z score
CCN1CCN(C(=O)c2cc(C)nc3onc(C)c23)[C@H]2CS(=O)(=O)C[C@H]21,-2,0.35
C[C@@H](C(=O)N(C)C)S(=O)(=O)NC1(c2ccc(F)cc2F)CCC1,1,-0.08
CCn1cc(-c2ccc(OC)cc2)cc1C(=O)N1CCCC1,-5,0.82
CC(CCNC(=O)N1CCOC(C(=O)O)C1)c1cccc(C(F)(F)F)c1 (stereo unspecified),-7,0.92
CC[C@@H]1NC(=O)N(CCCCOC)C1=O,1,-0.27
O=C(Cn1ccc2ncccc2c1=O)NCC1CCCCC1,-11,1.24
Cc1ccccc1OCC(=O)N[C@H]1CCOC[C@@H]1O,-1,0.18
Cc1cccc(NC(=O)Cn2cc(S(=O)(=O)N3CCCCC3)ccc2=O)c1,1,-0.19
COc1ccc(N2C(=O)CN(Cc3nc4ccccc4[nH]3)CC2(C)C)cc1,-8,1.48
CCCc1nnsc1C(=O)NCc1nc(-c2cnn(CC)c2)no1,-18,2.25
O=c1ccc(C(F)(F)F)cn1CC1CCC1,-19,1.87
Cc1cccc(C)c1N[C@@H](C)C(=O)NCc1cncn1C1CC1,8,-1.34
O=C(Nc1ccsc1)N[C@H]1C[C@H]2C(=O)NC[C@@H](CCC(=O)N3CCCCC3)N2C1,-7,1.13
CCn1cc(CCn2cnc(C#N)n2)cn1,-9,1.13
Cc1nn(C)c(C)c1[C@H](C)NCc1cc2cc(Cl)c(Cl)cc2[nH]1,28,-3.21
Cc1ccc(S(=O)(=O)N2CC(=O)N(c3ccc(Cl)cc3)[C@](C)(C(=O)NCCC(C)C)C2)cc1,-15,1.87
COC(=O)C1CCN(C(=O)N[C@@H]2CCO[C@H](c3ccncc3)C2)C1 (stereo partly specified),2,-0.25
Cc1nc2c(c(=O)n1CC(=O)Nc1cccc(Cl)c1F)CCCC2,-5,0.68
Cc1nnc([C@@]23COC[C@@H]2CN(S(=O)(=O)Cc2ccc(C)c(F)c2)C3)o1,-12,1.5
CCn1ncc(C)c1NC(=O)[C@@H]1CCCCCN1C,-4,0.67
O=C(NCC1CCCCN1CC1CCOC1)c1ccccc1 (stereo unspecified),-16,1.69

# From ChEMBL document CHEMBL4888484, “Replenishing the malaria drug discovery pipeline: Screening and hit evaluation of the MMV Hit Generation Library 1 (HGL1) against asexual blood stage Plasmodium falciparum ,using a nano luciferase reporter read-out” (2022)
